# Experimental data taken from paper PMC4336329 (PLoS ONE, 2015).
# The campaign covered roughly 310,000 compounds. About 2,200 (0.71%) showed an effect of 50% or more. The effect is printed as a negative number. The list shows a part of the results.
# Target: human ether-à-go-go-related gene (hERG) potassium channel (human, UniProt Q12809)
# Test: primary screen, population patch clamp on CHO cells stably expressing hERG
# human ether-à-go-go-related gene (hERG) potassium channel, sequence (Q12809 whole entry, looked up): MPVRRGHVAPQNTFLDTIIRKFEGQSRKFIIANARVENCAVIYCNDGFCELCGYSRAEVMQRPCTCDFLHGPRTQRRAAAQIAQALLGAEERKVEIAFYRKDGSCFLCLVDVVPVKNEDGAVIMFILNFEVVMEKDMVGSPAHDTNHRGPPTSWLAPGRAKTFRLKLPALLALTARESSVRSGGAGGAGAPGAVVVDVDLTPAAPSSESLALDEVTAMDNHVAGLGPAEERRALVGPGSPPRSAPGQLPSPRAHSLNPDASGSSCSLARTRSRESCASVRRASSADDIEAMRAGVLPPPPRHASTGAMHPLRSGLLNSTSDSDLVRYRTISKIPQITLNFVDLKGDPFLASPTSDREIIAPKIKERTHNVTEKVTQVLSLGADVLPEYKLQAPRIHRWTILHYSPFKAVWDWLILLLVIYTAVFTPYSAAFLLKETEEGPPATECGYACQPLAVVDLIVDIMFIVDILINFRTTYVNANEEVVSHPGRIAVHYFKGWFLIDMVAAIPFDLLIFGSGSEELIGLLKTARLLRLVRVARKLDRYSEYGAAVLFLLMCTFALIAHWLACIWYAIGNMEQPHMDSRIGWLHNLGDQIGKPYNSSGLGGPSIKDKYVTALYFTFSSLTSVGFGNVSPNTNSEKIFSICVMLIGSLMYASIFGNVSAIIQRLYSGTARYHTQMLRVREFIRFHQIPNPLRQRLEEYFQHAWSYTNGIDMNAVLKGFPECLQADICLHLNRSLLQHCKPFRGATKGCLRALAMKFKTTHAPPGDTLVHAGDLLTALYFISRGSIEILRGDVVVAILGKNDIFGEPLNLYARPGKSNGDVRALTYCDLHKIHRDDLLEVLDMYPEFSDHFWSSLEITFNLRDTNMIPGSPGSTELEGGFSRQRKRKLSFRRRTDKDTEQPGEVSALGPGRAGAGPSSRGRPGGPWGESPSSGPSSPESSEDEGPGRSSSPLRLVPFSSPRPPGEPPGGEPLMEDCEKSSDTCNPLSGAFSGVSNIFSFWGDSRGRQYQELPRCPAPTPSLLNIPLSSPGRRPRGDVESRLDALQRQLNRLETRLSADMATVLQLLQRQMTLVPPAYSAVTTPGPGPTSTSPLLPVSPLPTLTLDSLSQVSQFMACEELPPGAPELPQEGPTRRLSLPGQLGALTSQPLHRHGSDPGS
row,SMILES,"hERG current change (%, negative = inhibition) at 1uM"
1,COc1cccc(/C=N/Nc2nn3cnnc3c3ccccc23)c1,-2.21%
2,CCOC(=O)C1(S(=O)(=O)c2ccc(Cl)cc2)CCN(Cc2ccc(Cl)cc2)CC1,23%
3,Cc1cc(C)c(NC(=O)C2CCCN2C)c(C)c1 (stereo not shown),22.4%
4,Cc1c(C(=O)OC(C)C)sc2nc[nH]c(=O)c12,9.66%
5,CC(C)CC(=O)Nc1ccc(-c2cn3ccsc3n2)cc1,12.1%
6,CC(C)OC(=O)c1nnn(-c2nonc2N)c1CN1CCCCCC1,-5.97%
7,CCN(CC)S(=O)(=O)c1ccc(N=Nc2c(C)[nH]n(C(N)=S)c2=O)cc1,7.3%
8,CC1CCc2cc(F)ccc2N1C(=O)c1cnc2sccn2c1=O (stereo not shown),16.2%
9,CCOC(=O)c1c(C)[nH]c(C(=O)OCc2ccccc2F)c1C,14.4%
10,CC(C)C(NS(=O)(=O)c1cccc2nsnc12)C(=O)N1CCc2ccccc2C1 (stereo not shown),7.87%
11,O=C(Cn1c(=O)sc2ccccc21)OC(CCl)CCl,14.8%
12,O=C(O)c1ccccc1NC(=O)c1ccccc1-c1ccccc1C(=O)O,15.3%
13,COC(=O)c1ccc(NC(=O)CNc2ccccc2)cc1,8.51%
14,Cc1ccc(CN2CCN(Cc3cccn3-c3ccccn3)CC2CCO)cc1 (stereo not shown),-82.4%
15,CCc1ccccc1N(CC(=O)NCc1ccco1)C(=O)c1snc(C(N)=O)c1N,8.06%
16,O=C(c1ccc2c(c1)[nH]c(=S)n1c3ccccc3nc21)N1CCN(c2ncccn2)CC1,-5.76%
17,O=C(Nc1cccc2ccccc12)c1ccc([N+](=O)[O-])s1,2.49%
18,COC(=O)C1Cc2c([nH]c3ccccc23)C(C)N1 (stereo not shown),-7.31%
19,Cn1cc(CN2CCC(C(=O)N3CCCC3)CC2)c(-c2ccccc2F)n1,2.92%
20,COc1ccc(-c2nnc(NC(=O)c3cc(Cl)ccc3Cl)o2)cc1,5.11%
21,COC(=O)c1cccc(NC2CC(=O)N(c3ccc(OC)c(OC)c3)C2=O)c1 (stereo not shown),4.37%
22,Cc1ccc(-c2nn(C)c(=O)c3ccccc23)cc1S(=O)(=O)NCCN(C)C,2.52%
23,O=C(O)COc1ccc2oc3ccccc3c2c1,8.83%
24,COC(=O)C1CC(c2c(OC)cc(OC)cc2OC)=NO1 (stereo not shown),9.26%
25,CSCCC(=O)N1CCCC(CO)(CCCc2ccccc2)C1 (stereo not shown),12.1%
